# The campaign covered roughly 39,000 compounds. About 220 (0.56%) showed activity. The list shows a part of the results.
# System: Escherichia coli K-12 BW25113
# Assay: relative growth (OD600 normalised to plate interquartile mean) (fraction); higher = less growth inhibition, active = 0.2 or less
# Conditions: 50 µM; LB; incubation time: overnight (16-24 h)
# 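Note: static incubation at 37 °C against the wild-type strain, values averaged over two biological replicates.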
row,SMILES,relative growth
1,CO[C@H]1O[C@H](CO)[C@@H](OC(=O)c2ccc(Br)cc2)[C@@H]2OC(=O)[C@@H](Cc3ccc4ccccc4c3)C/C=C/C[C@H](Cc3ccc4ccccc4c3)C(=O)O[C@@H]12,inactive: 1
2,CNC(=O)c1cc(S(=O)(=O)N(C)C[C@@H]2Oc3ccc(NC(=O)Nc4ccc(C#N)cc4)cc3CC(=O)N([C@@H](C)CO)C[C@@H]2C)cs1,inactive: 0.952
3,Cc1noc(C)c1S(=O)(=O)N(C)C[C@@H]1Oc2ccc(NC(=O)CCN3CCOCC3)cc2CC(=O)N([C@@H](C)CO)C[C@@H]1C,inactive: 1
4,C[C@H]1CN([C@@H](C)CO)C(=O)c2cc(NC(=O)Cc3cn(C)c4ccccc34)ccc2O[C@@H]1CN(C)S(=O)(=O)c1cn(C)cn1,inactive: 0.997
5,COCC(=O)Nc1ccc2c(c1)C(=O)N(C)C[C@H](OC)[C@H](C)CN(Cc1ccccc1OC)[C@H](C)CO2,inactive: 1.03
6,C[C@H]1CCCCO[C@H](CN(C)C(=O)Nc2ccc(C(F)(F)F)cc2)[C@@H](C)CN([C@@H](C)CO)C(=O)c2cc(NS(=O)(=O)c3cccs3)ccc2O1,inactive: 0.989
7,C[C@H](O)C#Cc1ccc2c(c1)O[C@@H](CN(C)C)[C@@H](C)CN([C@@H](C)CO)S2(=O)=O,inactive: 1.03
8,COCC#Cc1ccc2c(c1)O[C@H](CN(C)Cc1ccc(F)cc1)[C@@H](C)CN([C@H](C)CO)S2(=O)=O,inactive: 1.05
9,COc1ccc2c(=O)cc(-c3ccccc3)oc2c1OC,inactive: 0.902
10,OCCc1ccc2c(c1)OCO2,inactive: 1.02
11,COc1ccc(CN(C)C[C@@H]2OCCCC[C@@H](C)Oc3ccc(NC(=O)c4ccccc4)cc3C(=O)N([C@@H](C)CO)C[C@@H]2C)cc1,inactive: 0.943
12,O=C(C[C@@H]1C=C[C@@H](NC(=O)CN2CCOCC2)[C@H](CO)O1)NC1CCC1,inactive: 0.99
13,C[C@@H]1CCCCO[C@H](CN(C)CC2CCCCC2)[C@@H](C)CN([C@H](C)CO)C(=O)c2cc(NS(=O)(=O)c3ccccc3)ccc2O1,inactive: 0.993
14,COc1ccc(-c2cc(=O)c3c(OC)c(OC)c(OC)cc3o2)cc1OC,inactive: 0.93
15,Cc1ccc(S(=O)(=O)Nc2ccc3c(c2)C(=O)N([C@H](C)CO)C[C@@H](C)[C@@H](CN(C)S(=O)(=O)c2ccc(Cl)cc2)OCCCC[C@H](C)O3)cc1,inactive: 1.06
16,O=C(C[C@H]1C=C[C@H](NC(=O)C2CCC2)[C@@H](CO)O1)NCCCN1CCOCC1,inactive: 0.985
17,COc1ccc(S(=O)(=O)Nc2cccc3c2O[C@@H](CN(C)S(=O)(=O)c2cn(C)cn2)[C@H](C)CN([C@@H](C)CO)C3=O)cc1,inactive: 0.984
18,C[C@@H]1CN([C@H](C)CO)C(=O)c2cc(NC(=O)c3ccncc3)ccc2O[C@H]1CN(C)S(=O)(=O)c1ccc(F)cc1,inactive: 0.924
19,C[C@@H]1CN([C@H](C)CO)C(=O)c2cc(NC(=O)Nc3cccc4ccccc34)ccc2O[C@@H](C)CCCCO[C@H]1CN(C)S(=O)(=O)c1cccs1,inactive: 1.04
20,CC(C)NC(=O)Nc1ccc2c(c1)C(=O)N([C@H](C)CO)C[C@@H](C)[C@H](CN(C)C(=O)Nc1cccc3ccccc13)OCCCC[C@H](C)O2,inactive: 1.01

row,SMILES,relative growth
1,O=C(O)CN(CCN(CC(=O)O)CC(=O)O)CCN(CC(=O)O)CC(=O)O,inactive: 0.328
2,C[C@H]1CN([C@@H](C)CO)C(=O)Cc2cc(NC(=O)C3CCCCC3)ccc2O[C@H]1CN(C)Cc1ccc(-c2ccccc2)cc1,inactive: 1.02
3,CCCNC(=O)N1C[C@H]2[C@@H](c3ccccc31)[C@@H](CO)N2C(=O)CN1CCOCC1,inactive: 1.02
4,COc1ccc(S(=O)(=O)N(C)C[C@@H]2Oc3ccc(NC(=O)Cc4ccccc4)cc3C(=O)N([C@@H](C)CO)C[C@H]2C)cc1,inactive: 1.03
5,Cc1ccc(S(=O)(=O)Nc2cccc3c2O[C@H](CN(C)S(=O)(=O)c2cn(C)cn2)[C@H](C)CN([C@H](C)CO)C3=O)cc1,inactive: 0.997
6,Cc1cc(C(=O)Nc2cccc3c2O[C@H](CN(C)C(=O)Nc2ccc4c(c2)OCO4)[C@@H](C)CN([C@H](C)CO)C3=O)n(C)n1,inactive: 0.97
7,C[C@@H]1CCCCO[C@@H](CN(C)S(=O)(=O)c2ccc(F)cc2)[C@@H](C)CN([C@H](C)CO)C(=O)c2cc(NC(=O)Nc3cccc4ccccc34)ccc2O1,inactive: 1.01
8,[N-]=[N+]=Nc1ccccc1[C@@H]1OC(c2ccc(OCCCO)cc2)=N[C@]1(Cc1ccccc1)C(=O)NC[C@@H](O)CO,inactive: 1
9,CC(C)CC#Cc1ccc2c(c1)O[C@@H](CN(C)C(=O)Cc1ccccn1)[C@@H](C)CN([C@@H](C)CO)S2(=O)=O,inactive: 0.999
10,CCCCCCCCCCCCCCSCC(=O)O,inactive: 0.797
11,Cc1noc(C)c1NC(=O)N(C)C[C@@H]1OCCCC[C@H](C)Oc2ccc(NC(=O)Cc3ccccc3)cc2C(=O)N([C@@H](C)CO)C[C@H]1C,inactive: 0.995
12,COc1ccc(NC(=O)Nc2ccc3c(c2)C(=O)N([C@@H](C)CO)C[C@@H](C)[C@@H](CN(C)CC2CC2)OCCCC[C@@H](C)O3)cc1,inactive: 0.986
13,CC(C)[C@@H](N)c1ncnn1C,inactive: 1.03
14,C[C@@H]1CCCCO[C@@H](CN(C)CC2CC2)[C@H](C)CN([C@@H](C)CO)C(=O)c2cc(NC(=O)c3ccccc3)ccc2O1,inactive: 1
15,COCC(=O)N1C[C@H](C)[C@H](OC)CN(C)C(=O)c2cc(NC(=O)c3cc(C)on3)ccc2OC[C@@H]1C,inactive: 0.969
16,C[C@@H]1CN([C@H](C)CO)C(=O)c2cc(NC(=O)CCCCCC(=O)Nc3ccccc3N)ccc2O[C@@H]1CN(C)Cc1ccc(Cl)c(Cl)c1,inactive: 0.983
17,CC(C)NCC(O)COc1cccc2[nH]c3ccccc3c12 (stereo not drawn),inactive: 1.09
18,C[C@@H]1CCCCO[C@@H](CN(C)Cc2ccc(C(=O)O)cc2)[C@H](C)CN([C@H](C)CO)C(=O)c2cc(NC(=O)Nc3ccccc3)ccc2O1,inactive: 0.997
19,C[C@@H]1CCCCO[C@H](CN(C)Cc2ccccc2)[C@H](C)CN([C@H](C)CO)C(=O)c2cc(NC(=O)Nc3ccc4c(c3)OCO4)ccc2O1,inactive: 0.952
20,C[C@H](CO)N1C[C@H](C)[C@@H](CN(C)S(=O)(=O)c2ccc(Cl)cc2)Oc2c(NS(C)(=O)=O)cccc2C1=O,inactive: 1

row,SMILES,relative growth
1,COc1ccc(NC(=O)Nc2ccc3c(c2)CC(=O)N([C@@H](C)CO)C[C@H](C)[C@@H](CN(C)S(=O)(=O)c2c(C)noc2C)O3)cc1,inactive: 0.986
2,C[C@@H]1CCCCO[C@H](CN(C)C(=O)Nc2ccc(F)cc2)[C@@H](C)CN([C@@H](C)CO)C(=O)c2cc(NS(=O)(=O)c3ccc(Cl)cc3)ccc2O1,inactive: 1.02
3,COc1ccc(S(=O)(=O)Nc2ccc3c(c2)CC(=O)N([C@H](C)CO)C[C@H](C)[C@H](CN(C)S(=O)(=O)c2ccc(OC)cc2)O3)cc1,inactive: 1
4,COc1ccc(NC(=O)Nc2ccc3c(c2)C(=O)N([C@@H](C)CO)C[C@@H](C)[C@@H](CN(C)C(=O)Nc2ccccc2)OCCCC[C@@H](C)O3)cc1,inactive: 1.04
5,C[C@H]1CN([C@@H](C)CO)S(=O)(=O)c2ccc(C#CCN(C)C)cc2O[C@H]1CN(C)Cc1cccnc1,inactive: 0.989
6,C[C@@H]1CCCCO[C@H](CN(C)C(=O)Nc2ccc(C(F)(F)F)cc2)[C@H](C)CN([C@@H](C)CO)C(=O)c2cc(NC(=O)Nc3ccc4c(c3)OCO4)ccc2O1,inactive: 1.05
7,C[C@@H]1CN([C@H](C)CO)C(=O)c2cc(NC(=O)Nc3ccc4c(c3)OCO4)ccc2O[C@@H]1CN(C)Cc1ccc(C(=O)Nc2ccccc2N)cc1,inactive: 1
8,CN(C)CC(=O)N[C@H]1CC[C@H](CC(=O)O)O[C@@H]1CO,inactive: 1
9,C[C@H](CO)N1C[C@H](C)[C@H](CN(C)Cc2ccc(C(F)(F)F)cc2)OCCCC[C@H](C)Oc2ccc(NC(=O)CCCN(C)C)cc2C1=O,inactive: 0.955
10,COc1cccc(-c2ccc3c(c2)O[C@@H](CN(C)C(=O)C2CC2)[C@H](C)CN([C@@H](C)CO)S3(=O)=O)c1,inactive: 1.01
11,Cc1ccc(S(=O)(=O)N(C)C[C@H]2OCCCC[C@@H](C)Oc3ccc(NS(C)(=O)=O)cc3C(=O)N([C@H](C)CO)C[C@@H]2C)cc1,inactive: 0.995
12,C[C@@H]1CN([C@@H](C)CO)C(=O)c2cc(NC(=O)C3CCCCC3)ccc2O[C@H]1CN(C)Cc1ccc(-c2ccccc2)cc1,inactive: 1.01
13,O=C(C[C@H]1CC[C@H](NC(=O)CN2CCOCC2)[C@@H](CO)O1)NCCc1ccncc1,inactive: 0.994
14,C[C@@H]1CN([C@@H](C)CO)C(=O)CCCn2nncc2CO[C@H]1CN(C)C(=O)Nc1ccccc1C(F)(F)F,inactive: 0.971
15,C[C@H](CO)N1C[C@H](C)[C@H](CN(C)C(=O)CCCN(C)C)OCc2cn(nn2)CCCC1=O,inactive: 0.998
16,CC(C)(C)[S@@](=O)N1Cc2cc(C(=O)NCCN3CCCCC3)nc(-c3cccc(-c4ccc(C#N)cc4)c3)c2[C@H]1CCO,inactive: 1.03
17,Cc1ccc(S(=O)(=O)N(C)C[C@@H]2Oc3ccc(NC(=O)NC(C)C)cc3C(=O)N([C@@H](C)CO)C[C@@H]2C)cc1,inactive: 1.01
18,Cc1noc(C)c1S(=O)(=O)N(C)C[C@H]1Oc2ccc(NC(=O)Cn3cnnn3)cc2CC(=O)N([C@H](C)CO)C[C@@H]1C,inactive: 0.999

# From the supplement of paper PMC9446081
